Measured values as given in PubChem BioAssay AID504333 (National Center for Advancing Translational Sciences (NCATS), 2011).
Several values for one entry are separate records, joined by “and”; a condition that tells them apart may be missing. Equal values may be shown once. Out of some 360,000 compounds screened, about 16,000 (4.4%) were called active. This list was built around the results that the source calls inconclusive (neither active nor inactive); the mix of calls is not that of the screen. Calls come from the whole dose curve; as a rule, active = well fitted inhibition curve with a large enough effect; inconclusive = small, poorly fitted or top-dose-only effect; inactive = no such curve, though single readings can be large or run the other way. A potency beside an inconclusive call is a rough fit, not a confirmed value.

target: Bromodomain adjacent to zinc finger domain protein 2B (Homo sapiens) (UniProt Q9UIF8); assay: qHTS Assay for Inhibitors of BAZ2B; details: AlphaScreen BAZ2B-H3K14Ac peptide displacement; activity change, negative = inhibition: at 114 µM (top of the series); note: nearly all actives have a fitted effect of over 60% in size
In short: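 AlphaScreen displacement: compounds (up to 110uM) incubated 30 min at room temperature with a preformed 50 nM BAZ2B/50 nM biotinylated H3K14Ac peptide complex in PBS pH 7.4 with Tween-20. Donor and acceptor beads at 10 ug/mL final added, 20 min light-protected before reading.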
% is set by controls: 0 for no effect and ±100 for the full control effect; potency is the fitted concentration of half-maximal effect; tags give direction and shape of the fitted curve.

Sequence of UniProt Q9UIF8 (Q9UIF8 whole entry, looked up, the tested form may be a part): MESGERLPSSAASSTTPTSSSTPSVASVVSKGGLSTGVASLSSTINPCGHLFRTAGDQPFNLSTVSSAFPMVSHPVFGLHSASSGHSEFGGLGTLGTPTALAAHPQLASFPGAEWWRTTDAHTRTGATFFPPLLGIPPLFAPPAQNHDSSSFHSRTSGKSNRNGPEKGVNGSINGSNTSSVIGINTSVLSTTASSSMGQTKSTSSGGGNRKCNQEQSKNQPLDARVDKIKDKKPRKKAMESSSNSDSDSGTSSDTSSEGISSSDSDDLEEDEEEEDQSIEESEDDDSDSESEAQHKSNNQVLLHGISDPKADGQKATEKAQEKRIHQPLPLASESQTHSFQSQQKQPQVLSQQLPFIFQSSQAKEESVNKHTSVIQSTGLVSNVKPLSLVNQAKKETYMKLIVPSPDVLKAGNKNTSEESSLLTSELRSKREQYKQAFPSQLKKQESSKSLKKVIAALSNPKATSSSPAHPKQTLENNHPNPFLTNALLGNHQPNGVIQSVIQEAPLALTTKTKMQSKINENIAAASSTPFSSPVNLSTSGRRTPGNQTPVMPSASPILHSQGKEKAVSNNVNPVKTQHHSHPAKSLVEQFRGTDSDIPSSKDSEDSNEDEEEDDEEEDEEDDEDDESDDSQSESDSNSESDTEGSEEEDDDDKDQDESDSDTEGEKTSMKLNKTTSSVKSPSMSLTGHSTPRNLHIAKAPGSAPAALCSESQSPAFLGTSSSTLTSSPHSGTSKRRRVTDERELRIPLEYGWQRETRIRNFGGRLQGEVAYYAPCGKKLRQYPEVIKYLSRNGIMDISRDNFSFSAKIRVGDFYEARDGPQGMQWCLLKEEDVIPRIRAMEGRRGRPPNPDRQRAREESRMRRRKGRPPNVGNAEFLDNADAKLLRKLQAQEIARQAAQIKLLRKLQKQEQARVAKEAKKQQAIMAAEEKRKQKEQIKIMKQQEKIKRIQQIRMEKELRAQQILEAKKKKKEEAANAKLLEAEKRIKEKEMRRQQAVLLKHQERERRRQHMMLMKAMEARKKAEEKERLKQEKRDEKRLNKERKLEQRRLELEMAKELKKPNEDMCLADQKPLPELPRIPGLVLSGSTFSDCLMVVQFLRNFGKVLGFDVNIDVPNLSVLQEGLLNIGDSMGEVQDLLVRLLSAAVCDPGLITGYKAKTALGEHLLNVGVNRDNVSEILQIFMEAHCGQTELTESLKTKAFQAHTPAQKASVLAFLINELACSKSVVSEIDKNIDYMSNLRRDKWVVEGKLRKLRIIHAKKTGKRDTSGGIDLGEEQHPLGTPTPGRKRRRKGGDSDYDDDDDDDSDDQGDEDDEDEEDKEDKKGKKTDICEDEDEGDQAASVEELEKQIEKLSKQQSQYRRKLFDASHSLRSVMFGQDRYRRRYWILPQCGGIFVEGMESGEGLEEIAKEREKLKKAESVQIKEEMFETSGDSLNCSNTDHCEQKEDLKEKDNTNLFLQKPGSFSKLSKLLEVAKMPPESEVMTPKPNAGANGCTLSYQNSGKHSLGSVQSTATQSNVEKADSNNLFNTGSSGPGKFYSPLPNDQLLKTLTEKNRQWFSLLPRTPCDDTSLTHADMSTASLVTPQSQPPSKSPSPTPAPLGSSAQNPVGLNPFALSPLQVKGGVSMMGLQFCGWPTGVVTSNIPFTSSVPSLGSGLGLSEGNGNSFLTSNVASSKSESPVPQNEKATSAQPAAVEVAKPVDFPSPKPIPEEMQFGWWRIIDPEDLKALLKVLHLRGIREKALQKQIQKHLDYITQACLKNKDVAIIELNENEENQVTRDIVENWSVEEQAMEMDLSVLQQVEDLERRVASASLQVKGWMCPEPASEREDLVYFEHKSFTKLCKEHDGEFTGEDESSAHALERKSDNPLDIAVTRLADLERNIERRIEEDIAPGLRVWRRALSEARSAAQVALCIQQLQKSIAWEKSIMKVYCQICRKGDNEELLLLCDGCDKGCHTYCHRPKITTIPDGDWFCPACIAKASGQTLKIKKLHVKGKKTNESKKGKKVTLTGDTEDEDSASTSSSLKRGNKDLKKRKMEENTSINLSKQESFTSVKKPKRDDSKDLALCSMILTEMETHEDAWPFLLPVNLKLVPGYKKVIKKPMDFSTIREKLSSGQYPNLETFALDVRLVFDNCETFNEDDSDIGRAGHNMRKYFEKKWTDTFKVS

SMILES | Potency | activity change, negative = inhibition
COc1ccc(C(=O)Nc2ccc(-c3n[nH]c(=S)o3)cc2)cc1OC | inconclusive: 79.4 µM [inhibitor, single point] | –
Cc1ccc(S(=O)(=O)c2cc3ccccc3oc2=Nc2ccc3c(c2)OCO3)cc1 | inconclusive: 2.82 µM [inhibitor, full curve, poor fit] | –
CC1CCN(S(=O)(=O)c2csc(C(N)=O)c2)CC1 | inconclusive: 89.1 µM [inhibitor, single point] | –
Cc1ccc(/C=N/N2CCN(Cc3ccc(Cl)cc3)CC2)o1 | inconclusive: 39.8 µM [inhibitor, partial curve, poor fit] | –
CCOC(=O)c1cnc(N2CCN(c3ccc(OC)cc3)CC2)c2ccccc12 | inconclusive: 12.6 µM [inhibitor, full curve, poor fit] | –
Cc1ccc(N2CCN(S(=O)(=O)c3c(C)nc4scc(C)n4c3=O)CC2)c(C)c1 | – | inactive: -10.4%
Cc1c(OCC(=O)N[C@H](C(=O)O)c2ccccc2)ccc2c3c(c(=O)oc12)CCCC3 | inconclusive: 89.1 µM [inhibitor, single point] | –
COc1ccc(-n2nc(N)c(C(N)=O)n2)cc1 | inconclusive: 50.1 µM [inhibitor, partial curve] | –
CC(C)c1nn2c(N)c(/C=C3\C=Nc4ccccc43)c(=O)nc2s1 | – | inactive: -8.01%
COc1ccc(Cl)c2sc(N(CCN(C)C)C(=O)c3ccc4c(c3)OCCO4)nc12 | inconclusive: 89.1 µM [inhibitor, single point] | –
CC(C)OP(=O)(OC(C)C)C1(NS(=O)(=O)c2ccc(Cl)cc2)C=C(Cl)C(=O)C(Cl)=C1 | inconclusive: 28.2 µM [inhibitor, partial curve] | –
C#CCOCCOCCOCCNc1nc(N2CCN(C(=O)[C@H](CCC(=O)O)n3cc(C(N)Cc4ccc(O)cc4)nn3)CC2)nc(N2CCN(C(=O)[C@H](CCC(=O)O)n3cc(C(N)[C@H](C)CC)nn3)CC2)n1 (stereo partly drawn) | active: 39.8 µM | –
O=C(CSc1nc2ncc(Cl)cc2[nH]1)NCC(=O)Nc1ccc(F)c(F)c1F | – | inactive: -14%
CCCn1c(C2CCCN2c2nc(-c3ccc(OC)cc3)cs2)nc2ccccc21 (stereo not drawn) | inconclusive: 17.8 µM [inhibitor, single point] | –
O=C(NCCc1ccccc1)C1CCC(CNS(=O)(=O)c2cccc3cccnc23)CC1 (stereo not drawn) | – | inactive: -2.99%
CC(C)(C)C1CCC(=NNc2ncc(C(F)(F)F)cc2Cl)CC1 (stereo not drawn) | active: 79.4 µM | –
C/C(=N/NC(=O)c1ccc(Cl)s1)c1cccnc1 | – | inactive: -27.8%
CN(CP(=O)(O)C(O)c1ccccc1)S(C)(=O)=O (stereo not drawn) | – | inactive: -3.68%
CCCCNC(=O)Nc1ccccc1C(=O)NCc1ccco1 | inconclusive: 50.1 µM [inhibitor, partial curve] | –
Cc1ccc(-n2cc(CN(C)Cc3nccn3C)c(-c3cccc(C)c3)n2)cc1 | inconclusive: 20 µM [inhibitor, full curve] | –
COc1cc(OC)cc(-c2c(-c3ccsc3)c3cc(Br)ccc3n2C)c1 | inconclusive: 100 µM [inhibitor, single point] | –
CC(=O)N1CCN(c2ccc(NCc3ccc(C)cc3)cc2)CC1 | active: 44.7 µM | –
COc1cc(-c2cc(C(=O)Nc3ccc(N4CCOCC4)cc3)c3ccccc3n2)cc(OC)c1OC | inconclusive: 12.6 µM [inhibitor, full curve] | –

SMILES | Potency | activity change, negative = inhibition
Nc1c2c(nc3sc4c(c13)CCCCC4)CCCCC2 | inconclusive: 89.1 µM [inhibitor, single point] | –
O=C(NNC(=O)c1ccncc1)c1ccncc1 | inconclusive: 89.1 µM [inhibitor, single point] | –
Fc1ccc2c(c1)C1OCCCC1C(c1ccccc1)N2 (stereo not drawn) | inconclusive: 28.2 µM [inhibitor, full curve, poor fit] | –
COc1ccc(Cl)cc1S(=O)(=O)NC(C)C(=O)NCCCn1ccnc1 (stereo not drawn) | inconclusive: 89.1 µM [inhibitor, single point] | –
CC(=O)c1cc(C(=O)N2CCc3c([nH]c4ccccc34)C2CC(C)C)[nH]n1 (stereo not drawn) | inconclusive: 79.4 µM [inhibitor, single point] | –
COCCn1nnnc1C(c1ccc(Cl)cc1)N1CCSCC1 (stereo not drawn) | inconclusive: 89.1 µM [inhibitor, single point] | –
COCCn1c(C)cc(C(=O)COC(=O)c2ccc(Cl)c(S(N)(=O)=O)c2)c1C | inconclusive: 89.1 µM [inhibitor, single point] | –
NCCCC[C@H](N)c1nnc([C@H](CC(=O)O)NC(=O)C2CCNCC2)o1 | – | inactive: -31.5%
CSc1ccc(C(=O)C2CCCN(Cc3cccn3-c3cccnc3)C2)cc1 (stereo not drawn) | inconclusive: 39.8 µM [inhibitor, partial curve] | –
c1cc2cc(-c3c(-c4ccc5c(c4)OCO5)noc3-c3ccsc3)ccc2[nH]1 | inconclusive: 79.4 µM [inhibitor, single point] | –
C=C(C)C(=O)Nc1cccc(C2=NOC3(C2)C[C@@H](C(N)=O)N(C(=O)c2cc([N+](=O)[O-])cc([N+](=O)[O-])c2C)C3)c1 (stereo partly drawn) | active: 28.2 µM | –
CCN(C(=O)c1ccnn1C)c1ccccc1 | – | inactive: 5.72%
COc1ccc(C(=O)CN2CCN(c3ccc(F)cc3)CC2)cc1 | inconclusive: 100 µM [inhibitor, single point] | –
Cc1cc(C(=O)OCC(=O)c2ccc(Cl)c([N+](=O)[O-])c2)c2cccc(C)c2n1 | inconclusive: 35.5 µM [inhibitor, partial curve] | –
O=[N+]([O-])c1cc(C(F)(F)F)cc([N+](=O)[O-])c1NCCNC(=S)Nc1cccc(F)c1 | active: 17.8 µM | –
CCN(CC)C(=O)CC(c1ccc2c(c1)OCO2)c1c(OC)cc(OC)c2c(-c3ccccc3)cc(=O)oc12 (stereo not drawn) | inconclusive: 50.1 µM [inhibitor, partial curve] | –
COc1ccc(-c2nc(CSCC(=O)N3CCN(c4cc(Cl)ccc4C)CC3)c(C)o2)cc1 | inconclusive: 15.8 µM [inhibitor, full curve] | –
O=C(O)COc1ccccc1/C=N/Nc1ccc(S(=O)(=O)Nc2ccc(Cl)cc2)cc1[N+](=O)[O-] | active: 35.5 µM | –
O=C1NC(=S)S/C1=C\c1ccc2ccccc2c1 | active: 50.1 µM | –
Cc1ccc(NCc2n[nH]c(=S)n2Cc2ccccc2)cc1Cl | inconclusive: 56.2 µM [inhibitor, partial curve] | –
O=C1CC(c2nc(-c3ccccc3)no2)CN1c1ccccc1 (stereo not drawn) | – | inactive: 2.23%
Cn1nnnc1Sc1ncnc2scc(-c3ccccc3Br)c12 | inconclusive: 89.1 µM [inhibitor, single point] | –
Cc1ccc(-c2nc3ncccn3c2Nc2ccc3c(c2)OCCO3)cc1 | inconclusive: 70.8 µM [inhibitor, single point] and inconclusive: 10 µM [inhibitor, full curve] | –

SMILES | Potency | activity change, negative = inhibition
CCc1ccc(CNc2ccc3c(c2)ncn3C(C)(C)C)cc1 | active: 31.6 µM and active: 44.7 µM | –
O=C(CCn1c(=O)[nH]c2ccsc2c1=O)Nc1ccc(F)c(F)c1 | inconclusive: 89.1 µM [inhibitor, single point] | –
Cc1ccc(CN2CCN(/N=C\C=C\c3ccccc3)CC2)cc1 | active: 28.2 µM | –
Cc1ccccc1NC(=O)CSc1nnc(-c2ccco2)n1N | – | inactive: 12.7%
Cc1ccc(-c2ccc(=O)n(CCC(=O)N3CCN(c4cccc(C)c4)C(C)C3)n2)cc1 (stereo not drawn) | inconclusive: 56.2 µM [inhibitor, partial curve] | –
COc1ccc(NC(=S)N2CCN(C(c3ccccc3)c3ccccc3)CC2)cc1OC | inconclusive: 11.2 µM [inhibitor, partial curve] | –
Clc1cccc2sc(N3CCCCC3)nc12 | – | inactive: 155%
COc1ccc(NC(=O)Cc2cccc(F)c2)cc1S(=O)(=O)Nc1ccccc1Cl | inconclusive: 89.1 µM [inhibitor, single point] | –
Cc1ccc(S(=O)(=O)N(CC(=O)Nc2ccc(Cl)cc2Cl)c2ccccc2C)cc1 | – | inactive: -13.1%
COc1ccccc1C(=O)Nc1cccc(C(=O)OCc2cc(=O)n3ccsc3n2)c1 | – | inactive: -3.35%
CCCn1nnc(NC(=S)NC(=O)/C=C/c2ccco2)n1 | – | inactive: -29%
c1csc(-c2cc(N3CCCCC3)c3ccccc3n2)c1 | – | inactive: 91.7%
COc1ccc(-c2csc(NC(=O)C3=COCCO3)n2)c(OC)c1 | inconclusive: 89.1 µM [inhibitor, single point] | –
O=C(CCCN1C(=O)c2cccc3cccc(c23)C1=O)N1CCc2ccccc2C1 | – | inactive: -29.1%
NC(=O)CC(NC(=O)c1ccc(Br)cc1)c1ccc(NCc2ccc(F)cc2)c([N+](=O)[O-])c1 (stereo not drawn) | – | inactive: -15.8%
CC1CCN(CCOCCOc2ccccc2-c2ccccc2)CC1 | inconclusive: 100 µM [inhibitor, single point] | –
COc1ccc(N2CCN(C(=O)C(=O)c3c[nH]c4ccccc34)CC2)cc1 | inconclusive: 44.7 µM [inhibitor, partial curve] | –
CCOC(=O)N1CCN(CC(=O)c2ccc(O)cc2O)CC1 | inconclusive: 89.1 µM [inhibitor, single point] | –
c1coc(CN2CCN(C(c3cccs3)c3nnnn3C3CCCC3)CC2)c1 (stereo not drawn) | inconclusive: 79.4 µM [inhibitor, single point] | –
Cc1cccc(S(=O)(=O)N2CCn3cccc3C2C)c1 (stereo not drawn) | inconclusive: 89.1 µM [inhibitor, single point] | –
CCOC(=O)c1cccc(NC(=O)CN(c2ccc(C)cc2)S(=O)(=O)c2c(C)n[nH]c2C)c1 | inconclusive: 89.1 µM [inhibitor, single point] | –
Cc1ccc(Cn2ccnc2SCC(=O)NCc2ccccc2Cl)cc1 | inconclusive: 31.6 µM [inhibitor, partial curve] | –
